Test results published in paper PMC4336329 (PLoS ONE, 2015).
The whole screen tested about 310,000 compounds, of which about 2,200 (0.71%) showed an effect of 50% or more. The effect is printed as a negative number. The list shows a part of the results.

Each compound was assayed against human ether-à-go-go-related gene (hERG) potassium channel (human, UniProt Q12809) (assay: primary screen, population patch clamp on CHO cells stably expressing hERG).
Sequence of human ether-à-go-go-related gene (hERG) potassium channel (Q12809 whole entry, looked up): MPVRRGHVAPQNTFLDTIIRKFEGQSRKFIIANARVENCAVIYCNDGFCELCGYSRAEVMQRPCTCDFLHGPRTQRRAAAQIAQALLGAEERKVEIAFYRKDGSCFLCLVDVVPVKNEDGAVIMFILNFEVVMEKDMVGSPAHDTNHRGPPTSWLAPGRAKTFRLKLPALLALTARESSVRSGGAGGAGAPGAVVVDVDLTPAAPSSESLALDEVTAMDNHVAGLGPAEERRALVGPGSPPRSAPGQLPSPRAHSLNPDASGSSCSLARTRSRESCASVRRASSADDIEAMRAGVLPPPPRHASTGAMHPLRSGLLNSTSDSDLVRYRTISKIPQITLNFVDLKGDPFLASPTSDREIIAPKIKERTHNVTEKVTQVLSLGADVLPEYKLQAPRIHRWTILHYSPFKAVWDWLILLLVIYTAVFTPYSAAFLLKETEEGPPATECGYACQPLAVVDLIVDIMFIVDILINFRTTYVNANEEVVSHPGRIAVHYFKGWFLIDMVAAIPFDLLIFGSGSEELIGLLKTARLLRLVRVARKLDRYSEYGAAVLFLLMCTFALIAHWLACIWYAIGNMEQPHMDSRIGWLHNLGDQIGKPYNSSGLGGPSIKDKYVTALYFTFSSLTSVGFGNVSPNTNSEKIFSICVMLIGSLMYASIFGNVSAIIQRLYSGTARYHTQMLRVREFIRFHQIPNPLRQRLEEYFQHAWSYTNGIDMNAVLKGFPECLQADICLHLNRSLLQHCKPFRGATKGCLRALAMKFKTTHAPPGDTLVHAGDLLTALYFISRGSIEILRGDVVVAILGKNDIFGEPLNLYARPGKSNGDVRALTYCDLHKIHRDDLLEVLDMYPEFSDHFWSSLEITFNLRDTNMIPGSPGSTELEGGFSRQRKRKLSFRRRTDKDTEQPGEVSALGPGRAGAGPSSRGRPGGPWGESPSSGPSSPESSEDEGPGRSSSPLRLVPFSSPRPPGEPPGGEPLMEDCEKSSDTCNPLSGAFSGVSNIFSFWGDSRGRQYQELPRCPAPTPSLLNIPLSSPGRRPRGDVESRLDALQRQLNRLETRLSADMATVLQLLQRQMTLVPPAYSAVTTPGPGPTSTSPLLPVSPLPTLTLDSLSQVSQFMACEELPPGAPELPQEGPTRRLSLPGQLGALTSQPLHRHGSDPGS

| SMILES | hERG current change (%, negative = inhibition) at 1uM [%] |
| --- | --- |
| COC(=O)N/N=C/c1cn(Cc2ccc(F)cc2)c2ccccc12 | 9.82 |
| CS(=O)(=O)N(Cc1ccc(C(=O)NCCSc2ccccn2)cc1)c1ccccc1 | -2.3 |
| Cc1[nH]c2ccccc2c1C1C(c2ccccc2)=NN=C(C(C)C)N1O (stereo not shown) | 0.519 |
| CN(C)C(CNC(=O)c1ccc(S(=O)(=O)Nc2ccccc2)cc1)c1ccco1 (stereo not shown) | 14 |
| CC(C)CN(C(=O)COC(=O)Cc1n[nH]c(=O)c2ccccc12)C1CCS(=O)(=O)C1 (stereo not shown) | 11.7 |
| O=C(O)c1ccc(COc2ccc3c4c(c(=O)oc3c2)CCC4)o1 | 16.3 |
| O=S(=O)(N/N=C/c1ccc2c(c1)OCO2)c1ccc(Br)cc1 | 10.8 |
| CCn1c(=O)cc(OCC(=O)NCC2CCCO2)c2ccccc21 (stereo not shown) | 13 |
| CN=C(Nc1cc(Cl)ccc1Cl)SC1CC(=O)N(c2ccc(C(=O)OC)cc2)C1=O (stereo not shown) | 12.9 |
| O=C(NNC(=S)Nc1ccccc1)c1ccccc1[N+](=O)[O-] | 22.2 |
| CCC(C)(c1ccc(C=O)s1)c1ccc(C=O)s1 | 14.4 |
| CCN(CC)C(=O)c1c2c(nc3ccccc13)-c1ccccc1CC2 | 12.8 |
| C/C(=C\C(=O)c1ccccc1)NNc1nc2ccccc2s1 | 9.97 |
| Nc1cc(=O)[nH]c(SCC(=O)Nc2cc([N+](=O)[O-])ccc2Cl)n1 | 1.49 |
| CCOC(=O)C1CCN(C(=O)CSc2nc(N)cc(=O)[nH]2)CC1 | 16 |
| COc1cc(OC)c(C2C3=C(CCCC3=O)Nc3nc4ccccc4n32)cc1OC (stereo not shown) | 9.11 |
| N#Cc1ccccc1Cn1cc(C(=O)c2ccccc2F)c2ccccc21 | 3.41 |
| CN(C)S(=O)(=O)CC12CCC(CC1=O)C2(C)C (stereo not shown) | 8.97 |
| CC(C)(O)C#Cc1ccc(C(=O)N2CCN(c3ccc(Cl)cc3)CC2)cc1 | 4.19 |
| Cc1ccc(CS(=O)Cc2ccc(C(=O)N3CCN(c4ccccc4)CC3)o2)cc1 (stereo not shown) | 11.3 |
| CN(C)CCCNCCCCNC(=O)/C=N/O | 6.1 |
| COc1ccc(NCc2nnc(SCC(=O)Nc3ccc(OC)cc3)n2C)cc1 | 6.26 |
| COc1ccc(/C(O)=C2/C(=O)C(=O)N(CCN3CCOCC3)C2c2ccc(C)cc2)cc1 (stereo not shown) | 2.37 |

| SMILES | hERG current change (%, negative = inhibition) at 1uM [%] |
| --- | --- |
| COc1cc(/C=N\NC(=O)c2ccc(C)nc2)ccc1OC(=O)c1cccc(F)c1 | 4.34 |
| CC(C)CCNc1nc2c(c(=O)n(Cc3cccc(F)c3)c(=O)n2C)n1C | 4.91 |
| O=C(O)CCCC(=O)Nc1ccc(C(=O)N2CCCCC2)c(Cl)c1 | 13.3 |
| CN1CCc2nc(SCC(=O)Nc3ccc(F)cc3)c(C#N)cc2C1 | 4.82 |
| COc1ccc(/C=N/NC(=O)CCn2c3ccccc3c3ccccc32)cc1O | 16.8 |
| O=[N+]([O-])c1cccc(-c2nnc(C34CC5CC(CC(C5)C3)C4)o2)c1 | 12.2 |
| COc1cccc(Nc2nnc(SCC3CCCCO3)s2)c1 (stereo not shown) | 10.4 |
| CC(=O)N1CCOc2ccc(S(=O)(=O)Nc3ccc(Cl)cn3)cc21 | 12.2 |
| O=C(NCCCN1CCCC1=O)C1CCCO1 (stereo not shown) | 12.6 |
| CC1CCN(S(=O)(=O)c2cccc(C(=O)NC3CCCCC3)c2)CC1 | 9.12 |
| OC1(c2ccccc2)Cc2cccc[n+]2C1c1ccccc1.[Br-] (stereo not shown) | 11.4 |
| COc1ccc(C(=O)NCc2csc(-c3cccs3)n2)cc1 | 7.82 |
| CCOC(=O)N1CCN(CC(=O)Nc2ccc(F)cc2)CC1 | -73 |
| COc1ccc2c(c1)CCc1sc(NC(=O)c3ccc(C)cc3)nc1-2 | 14.3 |
| CC(C)Oc1ccc(C(=O)N2CCCc3ccccc32)cc1 | 11 |
| CN(CC(=O)NCCc1ccccc1)S(=O)(=O)c1cccc2nsnc12 | -2.05 |
| O=C1CN(S(=O)(=O)c2ccccc2)CCN1S(=O)(=O)c1ccccc1 | 15.9 |
| N#Cc1ccc(CSc2nnc(NC(=O)c3ccc(=O)[nH]c3)s2)cc1 | 11.9 |
| CCN1CCc2nc3sc(C(=O)Nc4cccnc4Cl)c(N)c3cc2C1 | 7.26 |
| Cc1ccc(-c2nc(NC(=O)CSc3ncn[nH]3)ns2)cc1 | 3.22 |
| Cc1ccnc2nc(C(=O)OCC(=O)Nc3ccc([N+](=O)[O-])cc3Br)nn12 | 10.5 |
| CCOC(=O)c1ccccc1NC(=O)CSc1nnc(COc2ccccc2C)n1C | -9.17 |
| O=C(O)c1nn(CCOc2cccc(Br)c2)c(=O)c2ccccc12 | 9.93 |

| SMILES | hERG current change (%, negative = inhibition) at 1uM [%] |
| --- | --- |
| CN(C)c1cccc(C(=O)Nc2ccc(N3CCOCC3)cc2)c1 | 11.2 |
| O=C1CC(C2CCCO2)C(=O)N1c1ccccc1 (stereo not shown) | 13.6 |
| NCC1(CC(=O)O)CCCCC1 | 10.8 |
| COc1ccc(NC(=O)CC2SC(=Nc3ccccc3)NC2=O)c(OC)c1 (stereo not shown) | 10.2 |
| COc1ccc(C(=O)NNC(=O)Cc2ccc(Cl)cc2)cc1 | 3.38 |
| CCNC(=O)C(=O)NCC(c1ccc2c(c1)OCO2)N1CCOCC1 (stereo not shown) | 14.2 |
| COC(=O)c1cc(S(=O)(=O)N2CCCCCC2)c[nH]1 | 12.4 |
| COCCn1c(=S)[nH]c2cc(C(=O)N3CCN(c4cccc(Cl)c4)CC3)ccc2c1=O | -15.6 |
| C/C(=N\NC(=O)C1CC1c1ccccc1)c1cccs1 (stereo not shown) | 0.624 |
| Cc1ccc(C(=O)ONC(=O)c2ccc(Cl)cc2)cc1[N+](=O)[O-] | 10.3 |
| CCOC(=O)CSc1nnc(NC(=O)c2cccc(S(=O)(=O)N3CCCC3)c2)s1 | 11.8 |
| CCCc1cc(-c2n[nH]c(=S)n2CC)c2ccccc2n1 | 7.8 |
| CN(C(=O)Nc1ccccc1)C1CCCCC1 | 14.5 |
| COc1ccc(S(=O)(=O)N2CCN(Cc3ccccc3)CC2)cc1 | 16.1 |
| COc1ccc(-n2nc(C(=O)NCC(=O)NC3CCCCC3)c3ccccc3c2=O)c(OC)c1 | 11.2 |
| O=C(OCc1nc2ccsc2c(=O)[nH]1)c1ccco1 | 11.9 |
| COC(=O)N/N=C/c1ccc(-c2ccc(C)c(Cl)c2)o1 | 13.9 |
| Cc1cc(NC(=O)c2cc3ncc(Br)cn3n2)no1 | 15 |
| CN(C)S(=O)(=O)NCc1ccc2c(c1)OCO2 | 16.3 |
| CC(C)(C)n1nc2c(c1NC(=O)Cc1ccccc1)CS(=O)(=O)C2 | 13.6 |
| O=S(=O)(c1ccc(S(=O)(=O)N(Cc2cccs2)CC2CCCO2)cc1)N1CCCCC1 (stereo not shown) | -1.32 |
| CCCCNC(=O)CSc1ccc(S(=O)(=O)N2CCOCC2)cn1 | 0.428 |
| CCOC(=O)c1nn(-c2ccc(F)cc2)c(C)c1C(C)=O | 9.92 |

| SMILES | hERG current change (%, negative = inhibition) at 1uM [%] |
| --- | --- |
| O=C(O)c1ccc(C(=O)O)c(C(=O)c2ccc(NC(=O)c3ccccc3)cc2)c1 | 13.9 |
| COc1ccc(C[C@H]2CN3C(=NC[C@@H]3C)N2CCNC(=O)CCC2CCCCC2)cc1 | -63.7 |
| CCNC(=O)OCCC12CC3CC(CC(C3)C1)C2 | 11.6 |
| Cc1ccc(N2CC(C(=O)N/N=C/c3cccc([N+](=O)[O-])c3)CC2=O)cc1 (stereo not shown) | -6.95 |
| CCN(CC)S(=O)(=O)c1cccc(-c2n[nH]c(=S)n2C(C)COC)c1 (stereo not shown) | 18.2 |
| COC(=O)c1ccsc1NC(=O)c1ccco1 | 12.8 |
| N#Cc1nc(Cc2cccc3ccccc23)oc1NCCCn1ccnc1 | -17.7 |
| COc1ccc(-c2nn(-c3ccccc3)cc2C(=O)OCC(=O)c2ccc(C)c([N+](=O)[O-])c2)cc1 | 8.77 |
| O=C(N/N=C/c1cccc(Oc2ccccc2)c1)c1ccc(O)cc1O | -2.11 |
| CCS(=O)(=O)NCC(c1cccnc1)N1CCN(c2ccccc2)CC1 (stereo not shown) | 5.01 |
| CCOc1ccc2ccccc2c1/C=N/NC(=O)c1ccc(C)nc1 | -0.588 |
| O=C(Nc1ccc2ccccc2c1)C(=O)C1C(=O)Nc2ccccc21 (stereo not shown) | 9.44 |
| Cc1ccc(OCc2nnc(SCC(=O)NCc3ccccc3)n2C)cc1 | 2.67 |
| Cc1nc2ccc(NC(=O)Cc3ccc(Br)cc3)cc2s1 | 13 |
| O=C(Cc1ccccc1)c1c[nH]c(C(=O)NC2CCCC2)c1 | 15.7 |
| O=C(NN=C1CCCC1)NC1CCCCC1 | 0.295 |
| CCOc1ccc(-c2nnc(SCC(=O)O)n2Cc2ccccc2)cc1 | 13.9 |
| Cc1nnc(SCC(=O)N(CC(C)C)C2CCS(=O)(=O)C2)s1 (stereo not shown) | 8.99 |
| CCCC(=O)Nc1ccc(Cc2ccc(NC(=O)CCC)c(C(=O)O)c2)cc1C(=O)O | 9.95 |
| O=C(Nc1ccccc1C(F)(F)F)NC1CCCCCCC1 | -12.8 |
| Cc1noc(C)c1S(=O)(=O)N1CCC(C(=O)N2CCC(C)CC2)CC1 | 8.64 |
| O=C(O)CNC(=O)/C(=C/c1ccco1)NC(=O)/C=C/c1ccccc1 | 12.9 |
